# In all, about 230,000 compounds went through this assay and about 3,600 (1.6%) were called active. This list was built around the results that the source calls inconclusive (neither active nor inactive); the mix of calls is not that of the screen. Calls follow the shape of the dose curve; as a rule, active = well fitted inhibition curve with a large enough effect (not every such curve was filed as active); inconclusive = small, poorly fitted or top-dose-only effect, or another doubt; inactive = no such curve, though single readings can be large or run the other way. Potencies beside an inconclusive call are fits to weak or partial responses and may not hold up.
# Target: Lysine-specific demethylase 4E (Homo sapiens) (UniProt B2RXH2)
# Assay: qHTS Assay for Inhibitors of Human Jumonji Domain Containing 2E (JMJD2E)
# Details: JMJD2E catalytic domain, FDH-coupled NADH fluorescence (FDH is formaldehyde dehydrogenase); series mostly up to 57.1 µM
# Also: nearly all actives have a fitted effect of over 50% in size.
# 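For activity change, negative = inhibition in this document: 0% = wells with enzyme and -100% = buffer wells without enzyme.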
# Potency is read from the fitted curve at half-maximal effect; tags tell the direction and shape of the fitted curve.
# Sequence of UniProt B2RXH2 (B2RXH2 whole entry, looked up, the tested form may be a part): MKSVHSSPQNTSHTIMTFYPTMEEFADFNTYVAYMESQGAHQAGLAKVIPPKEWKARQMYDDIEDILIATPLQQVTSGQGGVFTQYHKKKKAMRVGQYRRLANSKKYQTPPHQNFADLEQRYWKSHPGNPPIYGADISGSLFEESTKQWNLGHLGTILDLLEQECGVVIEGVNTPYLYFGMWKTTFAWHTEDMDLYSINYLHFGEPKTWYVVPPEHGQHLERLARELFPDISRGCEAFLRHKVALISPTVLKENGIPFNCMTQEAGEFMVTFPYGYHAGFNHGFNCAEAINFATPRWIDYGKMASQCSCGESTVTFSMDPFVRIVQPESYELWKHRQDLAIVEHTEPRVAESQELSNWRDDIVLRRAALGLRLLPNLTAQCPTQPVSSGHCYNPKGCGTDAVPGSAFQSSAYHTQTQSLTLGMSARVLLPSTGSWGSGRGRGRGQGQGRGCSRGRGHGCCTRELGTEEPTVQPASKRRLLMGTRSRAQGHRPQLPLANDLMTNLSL
Compound,Potency,"activity change, negative = inhibition"
O=C(CCCCl)Oc1ccc2cc(-c3ccc4ccccc4n3)c(=O)oc2c1,"inconclusive: 14.1 µM [inhibitor, partial curve]",–
CCCSC1=N/C(=C\C=C\c2ccco2)C(=O)S1,active: 8.91 µM,–
Cc1cc(COc2ccccc2O)on1,inactive,–
CC(=O)/C(=N/Nc1cccc(C)c1)N1CCOCC1,inactive,–
CCCNC(=O)c1ccc(-c2nc3ccccc3s2)s1,"inconclusive: 28.2 µM [inhibitor, partial curve]",–
Cc1ccc(/C=C/C(=O)c2ccccc(=O)c2O)c(C)c1,active: 28.2 µM,–
COc1cc(CN2CCC(C(=O)NC3CCCC3)CC2)cc(OC)c1O,"inconclusive: 14.1 µM [inhibitor, partial curve]",–
Cc1cc(NC(=O)NCC(F)(F)F)no1,inactive,–
CN(C)c1ncc(S(=O)(=O)c2ccc(Cl)cc2)c(-c2ccc(Cl)cc2Cl)n1,"inconclusive: 35.5 µM [inhibitor, single point]",–
CCOc1cc(S(=O)(=O)NCc2ccco2)c(OCC)cc1-n1cnnn1,"inconclusive: 35.5 µM [inhibitor, partial curve]",–
Cc1cc(C)n2cc(CSCc3ccco3)nc2n1,"inconclusive: 31.6 µM [inhibitor, partial curve]",–
CN(C)CCCOC(=O)COc1ccc(C(C)(C)C)cc1,inactive,–
C=CCn1c(C)cc(C(=O)COC(=O)c2ccc(N)c([N+](=O)[O-])c2)c1C,inactive,–
Cc1ccn(C(=O)c2ccc(NC(=O)C3CC3)cc2)n1,"inconclusive: 1 µM [inhibitor, full curve]",–
O=S(=O)(/C=C/c1ccccc1)N1CCN(c2nc(-c3ccccc3)nc3ccccc23)CC1,"inconclusive: 28.2 µM [inhibitor, single point]",–
CN(C)CCCNC(=O)c1cc2sc3ccccc3c2s1,"inconclusive: 31.6 µM [inhibitor, partial curve]",–
CCOC(=O)c1oc2ccc(Cl)cc2c1NC(C)=O,"inconclusive: 35.5 µM [inhibitor, single point]",–
O=C(NCC1CCCO1)/C(=C/c1ccccc1)NC(=O)c1ccccc1 (centres undefined),inactive,–
CN1CCN(CC(=O)Nc2nnc(-c3cccs3)s2)CC1,"inconclusive: 28.2 µM [inhibitor, partial curve]",–
COC(=O)Cc1c(C)c2ccc(OCc3nn[nH]n3)cc2oc1=O,"inconclusive: 28.2 µM [inhibitor, partial curve]",–
Cc1[nH][nH]c(=O)c1C(c1cc2c(cc1Br)OCO2)c1c(C)[nH][nH]c1=O,inactive,–
NC(=O)c1ccccc1NC(=O)CN1CCOCC1,"inconclusive: 39.8 µM [inhibitor, single point]",–
CCC(=O)Nc1nc2ccc(S(C)(=O)=O)cc2s1,inactive,–
Cc1cccc2cc(CN(Cc3ccco3)C(c3nnnn3CCc3ccccc3)C(C)C)c(=O)[nH]c12 (centres undefined),active: 17.8 µM,–
Cc1cc(=O)n2nc(N3CCCC(C(=O)N4CCN(c5ccccc5)CC4)C3)sc2n1 (centres undefined),inactive,–

Compound,Potency,"activity change, negative = inhibition"
CN1C(=O)c2cccc(NC(=O)Cc3ccccc3)c2C1=O,"inconclusive: 25.1 µM [inhibitor, partial curve]",–
CCCOc1ccc(/C(CC)=N/NC(=O)C2(C)CC2(Br)Br)cc1 (centres undefined),"inconclusive: 39.8 µM [inhibitor, single point]",–
CCCCc1nc2c(c3c1C[C@H](C)OC3)CN(C(=O)c1ccco1)CC2,–,inactive: -10.4% [at 11.4 µM]
O=C(c1cc(=O)[nH]c2ccccc12)N1CCN(c2cccc(C(F)(F)F)c2)CC1,"inconclusive: 22.4 µM [inhibitor, single point]",–
COc1ccc(N(CC(=O)Nc2ccccc2C)S(=O)(=O)c2c(C)[nH]c(=O)[nH]c2=O)cc1,inactive,–
COC(=O)N/N=C\c1ccc(OC(=O)c2ccco2)cc1,inactive,–
COc1cccc(-c2c(C#N)c(SC)nc3cc(C)nn23)c1,inactive,–
C(#Cc1ccccc1)C[N+]1(CC#Cc2cccc3ccccc23)CCOCC1,"inconclusive: 25.1 µM [inhibitor, partial curve]",–
Cc1ccc(C(=O)Nc2nc(=O)n(C(=O)c3ccccc3Cl)s2)cc1,inactive,–
O=C(C[n+]1ccc(CCSc2ccc(F)cc2)cc1)c1ccccc1,"inconclusive: 35.5 µM [inhibitor, single point]",–
Cc1ccc(NC(=O)CSC2=C(C#N)C(c3ccc4c(c3)OCO4)C3=C(CCCC3=O)N2)c(C)c1 (centres undefined),"inconclusive: 22.4 µM [inhibitor, single point]",–
COC(=O)[C@H](COC(C)(C)C)NC(=O)O[C@H]1C(=O)c2ccc(OC)cc2O[C@@H]1c1ccc2c(c1)OCO2,inactive,–
Cc1cccc(C(=O)NNC(=O)/C=C/C(=O)O)c1,inactive,–
Cc1ccc(SCCC(=O)N2CCOCC2)cc1,inactive,–
N#CCSc1n[nH]c2nc3c(c(=O)n12)C1(CCCCC1)Cc1ccccc1-3,inactive,–
CN(C)S(=O)(=O)c1ccc(-c2csc(-c3cccnc3)n2)cc1,"inconclusive: 25.1 µM [inhibitor, single point]",–
Cc1c(C)n(Cc2ccccc2)c2ncnc(N)c12,"inconclusive: 39.8 µM [inhibitor, single point]",–
CCn1c2ccccc2c2cc(/C(C)=N/O)ccc21,"inconclusive: 28.2 µM [inhibitor, single point]",–
O=C(N/N=C\c1ccccn1)c1ccccc1O,"inconclusive: 39.8 µM [inhibitor, single point]",–
CC(C)NC(=O)COc1ncnc2sccc12,inactive,–
COC(=O)C1=C(C)C(c2ccc(OC)cc2)NC(=S)N1 (centres undefined),inactive,–
O=C(Oc1c(Cl)cc(Cl)c2cccnc12)c1cccc([N+](=O)[O-])c1,active: 14.1 µM,–
CN1C2C=C3C(C#N)=C(N)C(C#N)(C#N)[C@@H](c4ccc(Cl)cc4)[C@@H]3C1CC2 (some centres undefined),"inconclusive: 25.1 µM [inhibitor, partial curve]",–
Cc1cnc(NC(=O)CN2CCN(c3ccccc3F)CC2)s1,"inconclusive: 28.2 µM [inhibitor, single point]",–
COc1ccc(NC(=O)CSc2nnc(CCC(=O)Nc3ccc(C)c(Cl)c3)n2C)cc1,inactive,–

Compound,Potency,"activity change, negative = inhibition"
C[N+](C)(C)C/C=C1/COCO1,inactive,–
CCOC(=O)C1=C(c2ccccc2)NC(SCC(=O)NC2CCCCC2)=C(C#N)C1c1ccco1 (centres undefined),"inconclusive: 39.8 µM [inhibitor, single point]",–
CCc1ccc2oc(-c3ccc(OC)cc3)cc(=Nc3cccc(C(=O)O)c3)c2c1,"inconclusive: 14.1 µM [inhibitor, partial curve]",–
CCOC(=O)Cc1nc2nc(C)cc(C)n2n1,"inconclusive: 28.2 µM [inhibitor, single point]",–
Cc1cc(NCCCn2ccnc2)n2nc(-c3ccc(F)cc3)cc2n1,"inconclusive: 28.2 µM [inhibitor, partial curve]",–
COC(=O)CCC(=O)Nc1sc2c(c1C#N)CCCC2,inactive,–
O=c1[nH]cnc2c1oc1ccccc12,"inconclusive: 39.8 µM [inhibitor, single point]",–
CCCCCc1ccc(OCCCC[n+]2cccc(C)c2)c(CCCCC)c1,"inconclusive: 35.5 µM [inhibitor, partial curve]",–
O=[N+]([O-])c1ccc(C2CC(c3ccccc3)=Nc3ccccc3S2)cc1 (centres undefined),"inconclusive: 12.6 µM [inhibitor, partial curve]",–
COc1ccc2c(=O)c(-c3ccccc3)coc2c1,"inconclusive: 7.08 µM [inhibitor, full curve]",–
Cc1ccc2nc(NC(=O)c3ccc(S(=O)(=O)N4CCCc5ccccc54)cc3)sc2c1,"inconclusive: 15.8 µM [inhibitor, single point]",–
O=C1CN(C(=O)COC(=O)CCC(=O)c2ccc3c(c2)OCCO3)c2ccccc2N1,"inconclusive: 39.8 µM [inhibitor, single point]",–
COc1ccc(/C=C/C(=O)Nc2cc(S(=O)(=O)N3CCOCC3)ccc2C)cc1OC,"inconclusive: 28.2 µM [inhibitor, partial curve]",–
CC(=O)Nc1ccc(-c2cc(-c3ccc(NC(C)=O)cc3)nc(-c3ccccc3)n2)cc1,"inconclusive: 3.98 µM [inhibitor, full curve]",–
O=C(c1cccc(C(=O)N2CCN(c3ncccn3)CC2)c1)N1CCN(c2ncccn2)CC1,"inconclusive: 39.8 µM [inhibitor, single point]",–
CCN(CC)C(=O)c1ccc(NS(=O)(=O)c2ccccc2)cc1,inactive,–
CCCN1C(=O)c2ccc(C(=O)Nc3cc(C)on3)cc2C1=O,inactive,–
COc1cc2c(=O)n(Cc3ccccc3)c(=O)n(CC(=O)NCC3CCCO3)c2cc1OC (centres undefined),"inconclusive: 11.2 µM [inhibitor, partial curve]",–
CCOC(=O)CC(NC(=O)c1cc2cccc(OC)c2oc1=O)c1cccc([N+](=O)[O-])c1 (centres undefined),"inconclusive: 35.5 µM [inhibitor, single point]",–
NS(=O)(=O)c1cccc(NC(=S)NC(=O)c2cccc([N+](=O)[O-])c2)c1,inactive,–
O=C(COC(=O)/C=C/c1ccc2c(c1)OCO2)Nc1ccc(S(=O)(=O)N2CCCC2)cc1,"inconclusive: 28.2 µM [inhibitor, partial curve]",–
FC(F)(F)c1cccc(-c2ccn3ncnc3n2)c1,"inconclusive: 28.2 µM [inhibitor, partial curve]",–
CN(C)c1ccc(-c2ccc3ncnc(NCc4ccccc4)c3c2)cc1,"inconclusive: 25.1 µM [inhibitor, partial curve]",–
CNC(=O)[C@H](C)[C@H]1C[C@]1(C)[C@H](NC(=O)OCc1ccccc1)c1ccccc1,inactive,–

# — PubChem BioAssay AID2147 (National Center for Advancing Translational Sciences (NCATS), 2009)
